Test results: PMC3910374 (Cancer research, 2013)

Biological target: T1, His6-tagged BakΔTM (UniProt Q16611 1-186)
T1 sequence (looked up): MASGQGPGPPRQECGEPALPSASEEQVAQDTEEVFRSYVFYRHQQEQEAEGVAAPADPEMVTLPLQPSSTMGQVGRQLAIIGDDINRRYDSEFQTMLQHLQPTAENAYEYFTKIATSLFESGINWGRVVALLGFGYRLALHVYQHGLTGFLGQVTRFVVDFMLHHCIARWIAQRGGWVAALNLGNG
Test: SPR

B1: CDK1/cyclin B-phosphorylated Bcl-2ΔTM-His6 (domain or fragment)
chain: not shown
modifications: phosphorylated by CDK1 on Thr69, Ser70, Thr74 and Ser87; multiple different phosphorylated species
- fold tighter binding than unphosphorylated Bcl-2: ~5 fold
